Laboratory results from PubChem BioAssay (NCI).
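Growth conditions: 96-well plates. Treatment: test compound, 48 hours, 5 concentrations. Analysis: linear interpolation between bracketing concentrations; unreached endpoints set to highest concentration. Abbreviation: GI50, concentration required for 50% inhibition of growth. At the TGI there is no net growth.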

System: NCI-H322M lung
Test: NCI-60 cell line screen, 48 h

In the case of `CS(=O)(=O)Nc1cc(-c2ccc3ncc(C#N)c(NCc4ccccc4F)c3c2)cnc1Cl`, the GI50 is reported as 0.402 µM and the TGI is reported as 10.4 µM.
